Results as given in paper PMC4336329 (PLoS ONE, 2015).
The whole screen tested about 310,000 compounds, of which about 2,200 (0.71%) showed an effect of 50% or more. The effect is printed as a negative number. Some of the results follow.

Molecular target: human ether-à-go-go-related gene (hERG) potassium channel (human, UniProt Q12809)
Test: primary screen, population patch clamp on CHO cells stably expressing hERG

Sequence of human ether-à-go-go-related gene (hERG) potassium channel (Q12809 whole entry, looked up): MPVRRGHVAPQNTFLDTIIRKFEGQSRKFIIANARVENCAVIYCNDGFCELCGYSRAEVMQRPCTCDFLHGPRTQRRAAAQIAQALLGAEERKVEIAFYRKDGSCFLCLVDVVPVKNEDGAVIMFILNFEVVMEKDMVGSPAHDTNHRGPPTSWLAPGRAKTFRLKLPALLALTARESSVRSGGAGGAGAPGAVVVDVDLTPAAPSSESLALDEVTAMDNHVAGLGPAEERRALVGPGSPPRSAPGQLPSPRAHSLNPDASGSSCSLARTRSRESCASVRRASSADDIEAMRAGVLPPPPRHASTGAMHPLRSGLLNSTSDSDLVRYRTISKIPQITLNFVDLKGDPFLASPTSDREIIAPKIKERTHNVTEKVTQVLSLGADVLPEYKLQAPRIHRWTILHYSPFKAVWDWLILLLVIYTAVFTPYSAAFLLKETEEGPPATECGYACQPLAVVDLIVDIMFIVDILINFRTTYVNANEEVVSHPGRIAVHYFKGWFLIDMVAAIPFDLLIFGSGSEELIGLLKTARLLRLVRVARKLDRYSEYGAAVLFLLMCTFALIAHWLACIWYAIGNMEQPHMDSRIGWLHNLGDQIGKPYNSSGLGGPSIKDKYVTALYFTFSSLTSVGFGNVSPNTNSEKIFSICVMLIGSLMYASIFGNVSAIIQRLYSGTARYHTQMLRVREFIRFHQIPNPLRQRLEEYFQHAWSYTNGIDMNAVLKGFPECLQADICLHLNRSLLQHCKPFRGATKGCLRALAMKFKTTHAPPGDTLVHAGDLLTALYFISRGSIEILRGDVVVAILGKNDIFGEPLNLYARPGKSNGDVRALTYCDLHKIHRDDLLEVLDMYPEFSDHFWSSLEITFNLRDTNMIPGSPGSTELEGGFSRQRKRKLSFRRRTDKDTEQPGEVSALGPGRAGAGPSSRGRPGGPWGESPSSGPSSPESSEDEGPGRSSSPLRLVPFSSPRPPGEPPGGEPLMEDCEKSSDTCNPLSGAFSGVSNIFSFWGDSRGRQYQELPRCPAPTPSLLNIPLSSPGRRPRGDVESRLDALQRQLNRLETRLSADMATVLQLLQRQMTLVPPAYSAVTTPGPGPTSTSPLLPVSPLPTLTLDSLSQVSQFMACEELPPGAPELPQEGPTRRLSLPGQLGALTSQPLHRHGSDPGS

Structure (SMILES)	hERG current change (%, negative = inhibition) at 1uM [%]
CCOc1ccc(NC(=O)CN2CCN(CC(=O)Nc3ccc(F)cc3)CC2)cc1	-87.3
CCN(CC)CCNC(=O)COc1ccc(OC)cc1	8.68
O=C(/C=C(\c1ccc(Cl)cc1)n1cncn1)c1ccc(Cl)cc1	5.05
CC(=O)c1ccc2c(c1)C1C(Cl)C(Sc3ccccc3[N+](=O)[O-])CC1C(C(=O)O)N2 (centres unmarked)	0.852
COc1ccc(-c2cc(C(=O)N/N=C/c3cccnc3)c3ccccc3n2)c(OC)c1	14.3
CCOC(=O)c1ccc(NC2OC(=O)c3ccccc32)cc1 (centres unmarked)	6.93
O=C(COC(=O)c1cccc(F)c1)NC1CC1	6.21
O=C(Cc1cccs1)NCc1cccnc1	13.5
O=C(COC(=O)CC1CCCC1)Nc1ccc(Cl)cn1	6.46
COc1ccc(/C=C/C(=O)c2ccc(OC)cc2OC)c(OC)c1	13.8
CCCCCC(=O)N[C@@H](c1ccccc1)[C@@H](O)C(=O)O[C@H]1C[C@@]2(O)[C@@H](OC(=O)c3ccccc3)C3[C@](C)(C(=O)[C@H](O)C(=C1C)C2(C)C)[C@@H](OC1OCC(O)C(O)C1O)C[C@H]1OC[C@@]31OC(C)=O (some centres unmarked)	12.5
CS(=O)(=O)N(CC(=O)NCc1ccncc1)c1ccc(F)c(Cl)c1	9.53
COc1ccc(N/C=C/C(=O)c2ccccc2)cc1	11
CC(O)CNc1nc2c(c(=O)n(C)c(=O)n2C)n1C/C=C/c1ccccc1 (centres unmarked)	8.04
COc1ccccc1NC(=O)C(C)N(C)CCOc1ccccc1 (centres unmarked)	13.2
Cn1cccc1CNC(=O)Nc1ccc(Cl)c(Cl)c1	9.41
Cc1ccc(C(=O)N/N=C2\CCSC2)cc1[N+](=O)[O-]	1.94
CCO[C@H]1OC(C(=O)O)=C[C@@H](c2ccc(C(F)(F)F)cc2)[C@@H]1CCCO	17.2
CC(=O)Nc1nc(CC(C)C)cc(-c2ccco2)c1C#N	4.98
Oc1ccc(/C=N/Nc2nc(N3CCCCCC3)nc(N3CCCCCC3)n2)c(O)c1	5.13
COc1cc(OC)cc(C2=NCCN2)c1.Cl	7.84
O=C(Nc1ccc2c(c1)C(=O)NC2=O)c1cc(Cl)ccc1Cl	19.4
COc1cccc(OCCCCN2CCCCC2)c1	-2.89

Structure (SMILES)	hERG current change (%, negative = inhibition) at 1uM [%]
O=C(CCN1C(=O)C2C3C=CC(C3)C2C1=O)Nc1c(F)cccc1F (centres unmarked)	2.23
O=S(=O)(c1ccccc1)N(Cc1nc(-c2ccccc2)no1)C1CCCCC1	12.4
O=C1NC(=O)C(=Cc2ccc(N3CCOCC3)cc2)C(=O)N1	13.8
O=C(Cc1cccc2ccccc12)N/N=C/c1ccc(F)cc1	10.9
Cc1c(OCC(=O)NCCCN2CCCC2=O)ccc2c3c(c(=O)oc12)CCC3	6.73
Cn1c(CCNC(=O)c2ccco2)nc2cc(NC(=O)c3ccco3)ccc21	0.0013
O=C(O)/C=C\C(=O)NC1CCCCC1	3.36
Cc1ccc(-c2nnc(SCC(=O)N3CC(C)CC(C)C3)o2)cc1C (centres unmarked)	9.36
Cc1ccccc1C(=O)NC=C1C(=O)OC(C)(C)OC1=O	18.2
Cc1nn(Cc2ccccc2Cl)c(C)c1NC(=O)c1noc2c1CCCCC2	10.4
Cc1ccc(S(=O)(=O)Nc2ccc3ccccc3n2)cc1	8.34
c1ccc2sc(NN=C3CCCCCC3)nc2c1	5.55
COc1ccc(-c2cc3ccccc3n2CC(O)CN2CCCCC2)cc1.O=C(O)C(=O)O (centres unmarked)	-74.6
COc1ccc(NC(=O)NC2CCCc3ccccc32)cc1 (centres unmarked)	11.7
CCCN(CCC)C(=O)c1ccc2c(c1)N(CC)C(=O)c1ccccc1S2(=O)=O	4.78
CCOC(=O)N1CCN(c2c(N3CCc4ccccc43)c(=O)c2=O)CC1	-5.54
COc1cccc(-c2ccc(=O)n(CC(=O)Nc3ccc(S(=O)(=O)NCC(C)C)cc3)n2)c1	8.68
CCOC(=O)C1(C(F)(F)F)N=C(N(C)C)OC(N(C)C)=N1	8.44
Cl.O.Oc1cc2c(cc1O)[C@H]1c3ccccc3CN[C@@H]1CC2	6.84
Nc1nnnn1/N=C/c1cccc(OCc2ccccc2Cl)c1	17.3
Cl.c1ccc(CNc2ncnc3ccccc23)cc1	18
NC(=O)Nc1ccc(C(=O)OCC(=O)N2CCCC2=O)cc1	10.7
O=C(NCCc1cnc[nH]1)c1cccs1	15.6

Structure (SMILES)	hERG current change (%, negative = inhibition) at 1uM [%]
CN(CC(=O)Nc1ccccc1C(=O)NC1CC1)Cc1ccco1	8.24
COc1ccc(C(=O)C[n+]2cccc(C(N)=O)c2)cc1.[Br-]	10.9
O=C(NC1CCCC1)c1ccccc1OCc1ccccc1	9.23
COc1ccccc1-n1ccn(CC(=O)Nc2ccc(C)cc2Cl)c(=O)c1=O	-5.48
CCOc1ccc(OCCC(=O)OCC(=O)NCc2ccc(Cl)cc2)cc1	17.5
COc1ccc(CNCc2cccc(OC)c2OC)cc1Br.O=C(O)C(=O)O	-1.64
CC(C)N(Cc1nc(-c2ccccc2)no1)C(=O)CN(C)S(=O)(=O)c1ccccc1	9.61
COc1ccc(NC(=O)c2cc3cc(OC)ccc3oc2=O)cc1	9.27
CC(C)C(=O)Nc1ccccc1-c1nc2ccccc2[nH]c1=O	6.03
O=C(NCc1ccc(F)cc1)C1CCC(CNS(=O)(=O)c2ccccc2)CC1 (centres unmarked)	11.4
CCc1ccc(Nc2ncnc3nc[nH]c23)cc1	-4.02
CCCN(CCC)C(=O)Nc1ccc(F)cc1F	16.7
O=C(Nn1c(-c2ccc(Br)cc2)nc2ccccc2c1=O)c1cccnc1	13.9
CN1CCC(NC(=O)c2ccncc2)CC1	4.86
C1=CC2CC1CC2CNCc1ccco1.Cl (centres unmarked)	3.17
COC(=O)c1ccccc1NC(=O)CSc1nnc(-c2cccnc2)o1	-3.81
O=S(Cc1ccccc1)CC(O)(c1ccccc1)c1ccccc1 (centres unmarked)	-0.0528
COC(=O)c1ccccc1NC(=O)CN(C)S(=O)(=O)c1cc(C)ccc1OC	9.94
Nc1ccccc1-c1nnc2n1CCCCC2	16.7
CC1=NN(c2ccc(C)cc2C)C(=O)C1C(c1ccccc1)C1C(=O)N(c2ccc(C)cc2C)N=C1C (centres unmarked)	-0.731
CCOC(=O)c1cc(-c2ccc(C)cc2)n(CCC(=O)N2CCN(c3ccccn3)CC2)c1C	-17
Cc1cc(C(F)(F)F)nn1CC(=O)NCC1CCCO1 (centres unmarked)	7.49
O=C(O)c1cccc(CSc2nnc(Cc3ccccc3)o2)c1	1.01

Structure (SMILES)	hERG current change (%, negative = inhibition) at 1uM [%]
NNC(=O)c1oc2nc(-c3cccs3)cc(-c3ccco3)c2c1N	14.1
CC(C)(C)c1ccc(NC(=O)CC2(C(F)(F)F)OCCO2)cc1	6.77
CCOc1ccc(S(=O)(=O)N2CCCC(C(=O)N3CCN(CC)CC3)C2)cc1Cl (centres unmarked)	13.4
O=C(CN1CCCCC1)NNC(=O)c1cccc(Br)c1	14.5
Cc1ccccc1OCC(=O)NCCS(=O)(=O)N1CCN(c2ccc(F)cc2)CC1	-11.7
CC1CN(C(=O)/C=C/c2ccccc2Cl)CC(C)O1 (centres unmarked)	18.6
COC(=O)c1nn(-c2ccccc2)c(Sc2ccc(Cl)cc2)c1/C=N/O	4.74
Cc1cc(C)n(CCC(=O)N2CCN(S(=O)(=O)c3ccc(C)c(C)c3)CC2)n1	8.96
Cc1ccc(C(=O)NC(=S)Nc2cccc3nsnc23)cc1	7.03
COC(=O)c1[nH]c2ccc(Br)cc2c1NC(=O)CN1CCN(C2CCCCC2)CC1	-85.1
O=C(NCc1ccc2c(c1)OCO2)C1CCCN1S(=O)(=O)c1ccc(Cl)cc1 (centres unmarked)	-38.7
O=C(c1ccc(SCc2ccco2)c([N+](=O)[O-])c1)N1CCOCC1	8.52
COc1ccc(CC(=O)Nc2cc(C)ccc2O)cc1OC	13.9
O=C(OCCOc1ccc(Br)cc1)c1ccc(Cl)c(S(=O)(=O)N2CCOCC2)c1	4.88
O=C(NC1CC2CCCC(C1)N2CC(=O)N1CCCc2ccccc21)C1CCCCC1 (centres unmarked)	-23.3
COC(=O)c1ccc(/C=C/C(=O)c2ccc(OC)cc2)cc1	11.3
CCN(CC(=O)NCc1ccc(Cl)cc1)C(=O)c1ccc2cc(OC)ccc2c1	7.72
COc1ccc(Cc2nnc(N/N=C/c3ccc(Br)cc3)[nH]c2=O)cc1OC	13.9
Cn1c(=O)c2cc(S(=O)(=O)NCCC(=O)Nc3ccc(Cl)cc3)ccc2n(C)c1=O	-5.38
CCOCCCN(C(=O)Nc1ccc(CC)cc1)C1CCN(C(C)=O)CC1	-5.87
